Results taken from the supplement of paper PMC5655136.
Read counts after selection give these values, which scatter widely.

system: NB7; assay: fold depletion of shRNA, plasmid library share / infected cells without Dox share (9 days) (ratio); higher = more depleted after infection (more toxic, leaky expression from a Tet-inducible vector; NB7 is a neuroblastoma line without caspase-8); settings: shRNA pool: CD95L ORF + CD95L 3'UTR + Venus libraries
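Note: shRNA barcodes quantified by deep sequencing of PCR amplicons from cellular DNA, counts expressed as percent of each subpool, ratio averaged over two biological duplicates.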

Row | Sequence | fold depletion of shRNA
1 | AAGGACACCTTTTAACTCACC | 2.18
2 | GCACCATCTTCTTCAAGGACG | 3.74
3 | AGATGCACACAGCATCATCTT | 1.08
4 | CAACATCGAGGACGGCGGCGT | 1.22
5 | AGCACAGGCCTGTGTCTCCTT | 26.7
6 | ATGAACCAAGTGGACCTTGAG | 44.8
7 | CAACCTCTGTGCCCAGAAGGC | 5.19
8 | GCGATGCCACCTACGGCAAGC | 2.81
9 | CACTACTGGGCAGATGTGGGC | 0.397
10 | GCCTGGTCAAAGGAGGCCACC | 0.687
11 | TTGTATATTCCAAAGTATACT | 0.63
12 | TGGTTGTGACCTGAGGATTTA | 0.541
13 | GGATGGAAAAGGAAGACTAGA | 1.65
14 | GAGCTGAAGGGCATCGACTTC | 2.93
15 | GTGCTGCTGCCCGACAACCAC | 0.409
16 | AATTGTCCTGCTTTCTGGAGT | 1.65
17 | CGGAAGAACATAGAACTCTGG | 0.676
18 | GGTTGCCTTGGTAGGATTGGG | 0.863
19 | CGCCGACCACTACCAGCAGAA | 1.09
20 | ATCTGAGCTCTCTCTGGTCAA | 0.647
21 | CAACATCCTGGGGCACAAGCT | 3.28
22 | CGGCAACTACAAGACCCGCGC | 1.07
23 | AGGAGCTGGCAGAACTCCGAG | 6.79
24 | CCCCTCCAGGCACAGTTCTTC | 1.46

same assay, conditions: shRNA pool: CD95 ORF + CD95 3'UTR + Venus libraries

Row | Sequence | fold depletion of shRNA
25 | GCACCATCTTCTTCAAGGACG | 2.37
26 | ATATCTTTGAAAGTTTGTATT | 0.867
27 | CAACATCGAGGACGGCGGCGT | 0.797
28 | ATATTTCAATTGTGAATTCAC | 0.859
29 | TACAATATTTCAATTGTGAAT | 0.717
30 | GGCCAATTCTGCCATAAGCCC | 2.61
31 | AATGCAGAAGATGTAGATTGT | 0.97
32 | GCGATGCCACCTACGGCAAGC | 1.51
33 | CCCCACTCTATGAATCAATAG | 1.03
34 | ATTGATTAAAGATCTCAAAAA | 0.656
35 | GAGCAGGAGAGTATTACTAGA | 0.77
36 | GTATGTTAGTACAAATGTCTA | 1.34
37 | AACAAACTTCATCAAGAGTAA | 0.627
38 | GAGCTGAAGGGCATCGACTTC | 1.66
39 | AGTTTATTGGTGTCATATTAT | 1.01
40 | AGTGCAGAATTTAAATAAGGC | 1.94
41 | AACCAAACTTTTTTTGTAACT | 1.1
42 | CGCCGACCACTACCAGCAGAA | 0.923
43 | AAAAGCCAATCTTTGTACTCT | 1.21
44 | TAAAGGCTTTGTTCGAAAGAA | 1.02
45 | CAACATCCTGGGGCACAAGCT | 1.72
46 | CGGCAACTACAAGACCCGCGC | 0.797
47 | GAAAGTTCAACTGCTTCGTAA | 1.43
48 | CCACCCCCGAAAATGTTCAAT | 3.73
49 | TCTTTTGCCAATTCCACTAAT | 4.31
